# From the supplement of paper PMC8728848
# The list shows a part of the results.
# B1: SSR1 (Sclerotium rolfsii), A0A0M3KL30 (protein)
# chain: TYKITVRVYQTNPDAFFHPVEKTVWKYANGGTWTITDDQHVLTMGGSGTSGTLRFHADNGESFTATFGVHNYKRWCDIVTNLAADETGMVINQQYYSQKNREEARERQLSNYQVKNAKGRNFQIVYTEAEGNDLHANLIIG
# Legend:
# Experiment in all cases: glycan array binding signal (z-score within array); higher = stronger binding
# Conditions in all cases: glycan notation: IUPAC condensed, linker removed
# [1] = target: Gal(a1-6)Glc
# How it was run: (§1)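 The binding signal is a Z-score computed within each array. Data were drawn from 3228 arrays in the Consortium for Functional Glycomics database, restricted to those with a known protein sequence. Scores were averaged over arrays of the same protein sequence at different concentrations or buffers, and over linkers, and negative values can be taken as non-binding.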
# [2] = target: Gal(b1-2)Gal
# How it was run: as §1
# [3] = target: Gal(b1-3)Gal
# How it was run: as §1
# [4] = target: Gal(b1-3)Gal(b1-4)GlcNAc
# How it was run: as §1
# [5] = target: Gal(b1-3)GalNAc
# How it was run: as §1
# [6] = target: Gal(b1-3)GalNAc(a1-3)[Fuc(a1-2)]Gal(b1-4)Glc
# How it was run: as §1
# [7] = target: Gal(b1-3)GalNAc(a1-3)[Fuc(a1-2)]Gal(b1-4)GlcNAc
# How it was run: as §1
# [8] = target: Gal(b1-3)GalNAc(b1-3)Gal
# How it was run: as §1
# [9] = target: Gal(b1-3)GalNAc(b1-3)Gal(a1-4)Gal(b1-4)Glc
# How it was run: as §1
# [10] = target: Gal(b1-3)GalNAc(b1-4)Gal(b1-4)Glc
# How it was run: as §1
# [11] = target: Gal(b1-3)GalNAc(b1-4)[Neu5Ac(a2-3)]Gal(b1-4)Glc
# How it was run: as §1
# [12] = target: Gal(b1-3)GlcNAc
# How it was run: as §1
# [13] = target: Gal(b1-3)GlcNAc(a1-3)Gal(b1-4)GlcNAc
# How it was run: as §1
# [14] = target: Gal(b1-3)GlcNAc(a1-6)Gal(b1-4)GlcNAc
# How it was run: as §1
# [15] = target: Gal(b1-3)GlcNAc(b1-2)Man
# How it was run: as §1
# [16] = target: Gal(b1-3)GlcNAc(b1-2)Man(a1-3)[Gal(b1-3)GlcNAc(b1-2)Man(a1-6)]Man(b1-4)GlcNAc(b1-4)GlcNAc
# How it was run: as §1
# [17] = target: Gal(b1-3)GlcNAc(b1-2)Man(a1-3)[Gal(b1-3)GlcNAc(b1-2)Man(a1-6)]Man(b1-4)GlcNAc(b1-4)[Fuc(a1-6)]GlcNAc
# How it was run: as §1
# [18] = target: Gal(b1-3)GlcNAc(b1-2)Man(a1-3)[GlcNAc(b1-4)][Gal(b1-3)GlcNAc(b1-2)Man(a1-6)]Man(b1-4)GlcNAc(b1-4)GlcNAc
# How it was run: as §1
# [19] = target: Gal(b1-3)GlcNAc(b1-2)[Gal(b1-3)GlcNAc(b1-6)]Man(a1-6)[Gal(b1-3)GlcNAc(b1-2)Man(a1-3)]Man(b1-4)GlcNAc(b1-4)GlcNAc
# How it was run: as §1
# [20] = target: Gal(b1-3)GlcNAc(b1-3)Gal(b1-3)GlcNAc
# How it was run: as §1
# [21] = target: Gal(b1-3)GlcNAc(b1-3)Gal(b1-4)Glc
# How it was run: as §1
# [22] = target: Gal(b1-3)GlcNAc(b1-3)Gal(b1-4)GlcNAc
# How it was run: as §1
# [23] = target: Gal(b1-3)GlcNAc(b1-3)Gal(b1-4)GlcNAc(b1-2)Man(a1-3)[Gal(b1-3)GlcNAc(b1-3)Gal(b1-4)GlcNAc(b1-2)Man(a1-6)]Man(b1-4)GlcNAc(b1-4)GlcNAc
# How it was run: as §1
# [24] = target: Gal(b1-3)GlcNAc(b1-3)Gal(b1-4)GlcNAc(b1-2)[Gal(b1-3)GlcNAc(b1-3)Gal(b1-4)GlcNAc(b1-6)]Man(a1-6)[Gal(b1-3)GlcNAc(b1-3)Gal(b1-4)GlcNAc(b1-2)Man(a1-3)]Man(b1-4)GlcNAc(b1-4)[Fuc(a1-6)]GlcNAc
# How it was run: as §1
# [25] = target: Gal(b1-3)GlcNAc(b1-3)Gal(b1-4)GlcNAc(b1-3)Gal(b1-4)GlcNAc(b1-2)[Gal(b1-3)GlcNAc(b1-3)Gal(b1-4)GlcNAc(b1-3)Gal(b1-4)GlcNAc(b1-6)]Man(a1-6)[Gal(b1-3)GlcNAc(b1-3)Gal(b1-4)GlcNAc(b1-3)Gal(b1-4)GlcNAc(b1-2)Man(a1-3)]Man(b1-4)GlcNAc(b1-4)[Fuc(a1-6)]GlcNAc
# How it was run: as §1
# [26] = target: Gal(b1-3)GlcNAc(b1-3)Gal(b1-4)GlcNAc(b1-6)[Gal(b1-3)GlcNAc(b1-3)]Gal(b1-4)Glc
# How it was run: as §1
# [27] = target: Gal(b1-3)GlcNAc(b1-3)Gal(b1-4)[Fuc(a1-3)]GlcNAc
# How it was run: as §1
# [28] = target: Gal(b1-3)GlcNAc(b1-3)Gal(b1-4)[Fuc(a1-3)]GlcNAc(b1-6)[Gal(b1-3)GlcNAc(b1-3)]Gal(b1-4)Glc
# How it was run: as §1
# [29] = target: Gal(b1-3)GlcNAc(b1-3)GalNAc
# How it was run: as §1
# [30] = target: Gal(b1-3)GlcNAc(b1-6)Gal(b1-4)GlcNAc
# How it was run: as §1
# [31] = target: Gal(b1-3)GlcNAc(b1-6)GalNAc
# How it was run: as §1
# [32] = target: Gal(b1-3)GlcNAc(b1-6)[Gal(b1-3)]GalNAc
# How it was run: as §1
# [33] = target: Gal(b1-3)GlcNAc6S
# How it was run: as §1
# [34] = target: Gal(b1-3)[Fuc(a1-4)]GlcNAc
# How it was run: as §1
# [35] = target: Gal(b1-3)[Fuc(a1-4)]GlcNAc(b1-2)Man
# How it was run: as §1
# [36] = target: Gal(b1-3)[Fuc(a1-4)]GlcNAc(b1-2)Man(a1-3)[Gal(b1-3)[Fuc(a1-4)]GlcNAc(b1-2)Man(a1-6)]Man(b1-4)GlcNAc(b1-4)[Fuc(a1-6)]GlcNAc
# How it was run: as §1
# [37] = target: Gal(b1-3)[Fuc(a1-4)]GlcNAc(b1-3)Gal(b1-3)[Fuc(a1-4)]GlcNAc
# How it was run: as §1
# [38] = target: Gal(b1-3)[Fuc(a1-4)]GlcNAc(b1-3)Gal(b1-4)[Fuc(a1-3)]GlcNAc
# How it was run: as §1
# [39] = target: Gal(b1-3)[Fuc(a1-4)]GlcNAc(b1-6)GalNAc
# How it was run: as §1
# [40] = target: Gal(b1-3)[GlcNAc(b1-6)]GalNAc
# How it was run: as §1
# [41] = target: Gal(b1-3)[Neu5Ac(a2-6)]GalNAc
# How it was run: as §1
# [42] = target: Gal(b1-3)[Neu5Ac(a2-6)]GlcNAc(b1-4)Gal(b1-4)Glc
# How it was run: as §1
# [43] = target: Gal(b1-3)[Neu5Ac(b2-6)]GalNAc
# How it was run: as §1
# [44] = target: Gal(b1-4)Gal
# How it was run: as §1
# [45] = target: Gal(b1-4)GalNAc(a1-3)[Fuc(a1-2)]Gal(b1-4)GlcNAc
# How it was run: as §1
binder,measurement,setting,value
B1,glycan array binding signal (z-score),[1],-0.339
same,glycan array binding signal (z-score),[2],-0.335
same,glycan array binding signal (z-score),[3],-0.326
same,glycan array binding signal (z-score),[4],-0.345
same,glycan array binding signal (z-score),[5],0.786
same,glycan array binding signal (z-score),[6],1.15
same,glycan array binding signal (z-score),[7],1.31
same,glycan array binding signal (z-score),[8],-0.338
same,glycan array binding signal (z-score),[9],-0.337
same,glycan array binding signal (z-score),[10],-0.34
same,glycan array binding signal (z-score),[11],-0.336
same,glycan array binding signal (z-score),[12],-0.329
same,glycan array binding signal (z-score),[13],-0.34
same,glycan array binding signal (z-score),[14],-0.343
same,glycan array binding signal (z-score),[15],-0.34
same,glycan array binding signal (z-score),[16],-0.284
same,glycan array binding signal (z-score),[17],-0.333
same,glycan array binding signal (z-score),[18],-0.146
same,glycan array binding signal (z-score),[19],-0.322
same,glycan array binding signal (z-score),[20],-0.335
same,glycan array binding signal (z-score),[21],-0.347
same,glycan array binding signal (z-score),[22],-0.321
same,glycan array binding signal (z-score),[23],-0.32
same,glycan array binding signal (z-score),[24],-0.27
same,glycan array binding signal (z-score),[25],-0.276
same,glycan array binding signal (z-score),[26],-0.327
same,glycan array binding signal (z-score),[27],-0.326
same,glycan array binding signal (z-score),[28],-0.347
same,glycan array binding signal (z-score),[29],-0.344
same,glycan array binding signal (z-score),[30],-0.339
same,glycan array binding signal (z-score),[31],-0.327
same,glycan array binding signal (z-score),[32],0.908
same,glycan array binding signal (z-score),[33],-0.321
same,glycan array binding signal (z-score),[34],-0.333
same,glycan array binding signal (z-score),[35],-0.321
same,glycan array binding signal (z-score),[36],-0.309
same,glycan array binding signal (z-score),[37],-0.327
same,glycan array binding signal (z-score),[38],-0.326
same,glycan array binding signal (z-score),[39],-0.343
same,glycan array binding signal (z-score),[40],1.22
same,glycan array binding signal (z-score),[41],0.823
same,glycan array binding signal (z-score),[42],-0.35
same,glycan array binding signal (z-score),[43],0.881
same,glycan array binding signal (z-score),[44],-0.346
same,glycan array binding signal (z-score),[45],-0.624
